In all, about 45,000 compounds went through this assay and about 65 (0.1%) were called active. Calls come from the whole dose curve; as a rule, active = well fitted activation curve with a large enough effect; inconclusive = small, poorly fitted or top-dose-only effect; inactive = no such curve, though single readings can be large or run the other way. The list shows a part of the results.
Target: Galactocerebrosidase (Homo sapiens) (UniProt P54803)
Assay: A Novel Cell-Based Assay to Identify Small Molecules for B -Galactocerebrosidase; note: 0% is about no effect; nearly all actives have a fitted effect of over 65% in size
Conditions: 145M-Twi-hGALC-G270D cells (Twitcher mouse brain line with human GALC G270D), HMU-beta-Gal fluorescence, 48 h; series mostly up to 57.5 µM; activation: at the top concentration
Outline: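 Fluorescence readout: HMU-β-gal cleavage by mutant GALC (0.1 mM final, citrate/phosphate pH 5.2 with 1 mg/mL taurocholate), stopped with carbonate/bicarbonate plus Triton X-100. Cells: murine Twitcher 145M-Twi expressing human G270D GALC; qHTS for activators.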

Chain of UniProt P54803 (P54803 whole entry, looked up): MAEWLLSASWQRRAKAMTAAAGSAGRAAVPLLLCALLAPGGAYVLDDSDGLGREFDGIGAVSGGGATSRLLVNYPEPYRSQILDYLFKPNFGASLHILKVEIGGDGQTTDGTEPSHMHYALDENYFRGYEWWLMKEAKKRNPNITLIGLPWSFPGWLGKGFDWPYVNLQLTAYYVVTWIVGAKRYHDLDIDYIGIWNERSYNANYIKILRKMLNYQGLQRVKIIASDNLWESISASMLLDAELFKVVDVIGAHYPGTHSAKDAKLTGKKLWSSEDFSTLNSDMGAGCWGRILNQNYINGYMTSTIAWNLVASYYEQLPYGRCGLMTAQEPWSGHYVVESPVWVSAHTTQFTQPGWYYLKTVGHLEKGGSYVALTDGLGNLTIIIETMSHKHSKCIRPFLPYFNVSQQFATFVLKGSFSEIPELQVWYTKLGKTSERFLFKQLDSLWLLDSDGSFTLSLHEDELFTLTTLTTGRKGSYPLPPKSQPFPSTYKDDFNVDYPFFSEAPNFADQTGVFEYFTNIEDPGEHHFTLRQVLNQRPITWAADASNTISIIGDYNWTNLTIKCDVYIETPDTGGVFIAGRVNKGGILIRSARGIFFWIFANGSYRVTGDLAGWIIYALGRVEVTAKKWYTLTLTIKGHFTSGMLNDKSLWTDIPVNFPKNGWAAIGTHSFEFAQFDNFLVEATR

activation, inactive:
CN1C(C(=O)c2ccccc2)=C(NC(=O)c2ccccc2Br)c2ccccc2S1(=O)=O -9.62%
COCCn1c(C)cc(O)c(C(c2ccc(Cl)cc2)N2CCN(c3ccccc3)CC2)c1=O (stereo not drawn) -8.21%
CCCCCSc1nnc2c(n1)OC(CC)Nc1ccc(Br)cc1-2 (stereo not drawn) -45.9%
COc1cc(C2N=C(N)Nc3nc4ccccc4n32)ccc1OCC(=O)O (stereo not drawn) -10.7%
COc1ccc(-c2cc(C(C)=O)c(C)n2CCC(=O)Nc2ccc(C)cc2Cl)cc1 2.96%
Cc1cc(C)cc(Nc2nc3ccccc3n3cnnc23)c1 -6.2%
CCc1ccc(NC(=O)Cc2csc(COc3cccc(C)c3)n2)cc1 6.25%
O=c1n(Cc2ccc(Cl)cc2)c2ccccc2c2nc(-c3ccccc3)nn12 8.31%
Cc1nc2ccc(S(=O)(=O)NC(C(=O)N3CCN(c4ccc(Cl)cc4)CC3)C(C)C)cc2s1 (stereo not drawn) -10.4%
O=S(=O)(c1ccc2[nH]c3c(c2c1)CCCC3)N1CCN(c2cccc(C(F)(F)F)c2)CC1 -0.528%
CCn1c(=O)cc(SCC(=O)NCCc2cccc(C)c2)c2ccccc21 -5.22%
CCC(=O)N1CCc2cc(Br)cc(S(=O)(=O)CCC(=O)N3CCN(c4ccc(OC)cc4)CC3)c21 -29.3%
CCC(C(=O)Nc1cc(OC)ccc1OC)n1c(=O)c(C(F)(F)F)nc2ccccc21 (stereo not drawn) -15.3%
CCOc1ccc2oc(=O)cc(CN3CCN(Cc4ccc(F)cc4)CC3)c2c1 -1.18%
O=C(CCCn1c(=O)c2ccccc2n(CC(=O)Nc2cccc(Cl)c2)c1=O)NCc1ccc2c(c1)OCO2 -7.78%
COc1ccc(C(=O)NCC(c2ccc(N(C)C)cc2)N2CCCC2)cc1 (stereo not drawn) -6.26%
Cc1cc(C)cc(-n2ccnc2SCC(=O)Nc2ccc(C)cc2C)c1 -26.6%
CC(=O)c1ccc(N2CCN(c3nc4c(S(=O)(=O)c5ccc(C)c(C)c5)nnn4c4ccc(Cl)cc34)CC2)cc1 -13.5%
CCC(=O)Nc1ccccc1-c1nc2ccccc2n(C(C)C(=O)Nc2cccc(Cl)c2C)c1=O (stereo not drawn) -13.6%
COc1cc(NC(=O)CNC(=O)Cn2ccc3ccccc3c2=O)cc(OC)c1OC 6.08%
CC(C)c1ccc(Nc2ncnc3c2nc2n3CCCC2)cc1 -16.3%
CC(=O)[C@H]1CC[C@H]2[C@@H]3CC=C4C[C@@H](O)CC[C@]4(C)[C@H]3CC[C@]12C -11%
O=C(CSc1nc2c([nH]c3ccccc32)c(=O)n1-c1ccc(Cl)cc1)NC1CCCCC1 10.6%
CCN(CC)C(=O)CN1C(=O)COc2ccc(S(=O)(=O)N3CCOCC3)cc21 -11.4%
CCCCNC(=O)Nc1ccc2c(c1)N(C)C(=O)c1ccccc1S2 11.5%
CCc1ccc(NC(=O)N2CCN(Cc3nc4ccc(C)cc4o3)CC2)cc1 -12.2%
Cc1ccc(N2CCN(C(=O)c3cn(C)c4ccc(S(=O)(=O)N5CCCC5)cc4c3=O)CC2C)cc1 (stereo not drawn) -24.8%
Cc1cc(Nc2cccc(Br)c2)n2c(nc3ccccc32)c1C#N -1.33%
CCOc1cc(C(Nc2cc(C)ccn2)c2ccc3cccnc3c2O)ccc1OC (stereo not drawn) -19.8%
CC(=O)Nc1ccc(S(=O)(=O)NCC2CCC(C(=O)NCc3ccccc3)CC2)cc1 (stereo not drawn) -5.59%
COc1ccccc1NC(=O)c1c(C)cc(C)nc1SCC(=O)Nc1ccc(C)cc1 -11.8%
COc1ccc(NC(=O)Cn2nnc(C(=O)NCc3ccco3)c2N)c(OC)c1 -15.9%
COc1cc(NC(=O)CSc2nc(-c3ccccc3)no2)cc(OC)c1 -24%
Cc1cc(C)cc(-n2c(SCC(=O)NCc3ccc(F)cc3)nc3c([nH]c4ccccc43)c2=O)c1 -23.3%
Cc1ccc2c(c1)c(=O)c1ccccc1n2CCCC(=O)Nc1ccc(Cl)c(Cl)c1 -17.2%
CCOc1ccc(NC(=O)CN2C(=O)c3ccccc3Sc3ccc(C(=O)OC)cc32)cc1 -8.84%
O=C(C1CCC(Cn2c(=O)c3sccc3n(Cc3ccccc3F)c2=O)CC1)N1CCOCC1 (stereo not drawn) -12.3%
CN(C)c1ccc(C(=C2C=CC(=[N+](C)C)C=C2)c2ccc(N(C)C)cc2)cc1 -16.8%
COc1cccc(NC(=O)CN2C(=O)CC(c3ccco3)Sc3ccccc32)c1 (stereo not drawn) -5.07%
Cc1cccc(C)c1NC(=O)C(=O)NCC(c1cccnc1)N1CCc2ccccc21 (stereo not drawn) -17.7%
COC(=O)c1sc(-c2ccccc2)cc1NC(=O)c1cccc(Cl)c1 -11.7%
CCOC(=O)c1c(NC(=O)c2ccc(S(=O)(=O)N(CC(C)C)CC(C)C)cc2)sc2c1CCN(CC)C2 -23%
O=C(Nc1nc(-c2ccccc2)ns1)c1ccc(Cl)cc1 -28.6%
Cc1cccc(NC(=O)C(NS(=O)(=O)c2cccc3nsnc23)c2ccccc2)c1C (stereo not drawn) -10.9%
COc1ccc(CN(C(=O)c2cc(=O)c3ccccc3o2)C2CCS(=O)(=O)C2)cc1OC (stereo not drawn) -8.37%
COc1ccccc1N1CCN(C(=O)c2ccc3c(c2)N(Cc2cc(C)ccc2C)C(=O)c2ccccc2S3(=O)=O)CC1 -4.66%
CCOC(=O)N1CCc2c(sc(NCc3cccs3)c2C(=O)Nc2cc(Cl)ccc2OC)C1 -6.12%
CC(C(=O)O)c1ccc2c(c1)CC(=O)c1ccccc1S2 (stereo not drawn) -13.1%
CCN(CC)c1ccc(NC(=O)C2CCN(S(=O)(=O)c3ccc4c(c3)oc(=O)n4C)CC2)c(C)c1 -1.85%
CCOC(=O)c1c(C)c(-c2ccccc2)n(CC(=O)NCc2ccccc2)c1C 0.0706%
O=C(OCC(COC(=O)c1cccnc1)(COC(=O)c1cccnc1)COC(=O)c1cccnc1)c1cccnc1 -20.6%
Cc1ccc(C(=O)NCC(c2ccco2)S(=O)(=O)c2ccccc2)cc1C (stereo not drawn) -4.43%
COc1cc2c(=O)c(S(=O)(=O)c3ccc(C(C)C)cc3)cn(Cc3ccccc3C)c2cc1OC -8.65%
CCOC(=O)c1ccc(NS(=O)(=O)c2ccc3c(c2)CCN3C(=O)CC)cc1 -5.54%
COc1ccc(N2CCN(S(=O)(=O)c3cc(Br)cc4c3N(C(=O)C3CC3)CC4)CC2)cc1 -5.66%
Cc1ccc(NC(=O)Cn2c(=O)n(Cc3ccco3)c(=O)c3sc4ccccc4c32)c(C)c1 -8.64%
CC(C)(C)OC(=O)N1CCC(c2c(C(=O)N3CCN(c4ccccn4)CC3)cnn2-c2cccc(F)c2)CC1 -7.6%
Cc1ccc(S(=O)(=O)c2nnn(CC(=O)Nc3ccccc3C)c2N)cc1 -9.51%
COc1ccc(-n2nc(C(=O)N3CCCCC3)c3c4ccccc4n(C)c3c2=O)cc1Cl -11.5%
CCOC(=O)c1cc(-c2ccccc2)n(CCC(=O)NCCc2ccc(C)cc2)c1C -9.34%
O=C(CSc1nccn1Cc1ccccc1)Nc1nc2ccccc2s1 3.84%
COc1ccc(OC)c(NC(=O)COCc2cc(-c3ccco3)on2)c1 -8.5%
O=C(Nc1cccc(C(F)(F)F)c1)c1cc2nc(-c3ccco3)cc(C(F)(F)Cl)n2n1 -14.8%
Cc1cc(C)c(Cn2c(=O)n(Cc3ccccc3)c(=O)c3c(C)c(C)sc32)c(C)c1 -14%
COc1ccc2c(c1)c1c(c(=O)n(-c3cccc(Cl)c3)c(=O)n1CC(=O)NCC1CCCO1)n2C (stereo not drawn) -14.5%
CCOc1ccc(NC(=O)CSC2=Nc3ccccc3C3=NC(CCC(=O)NCc4cccs4)C(=O)N23)cc1 (stereo not drawn) -1.25%
CCOc1ccc(-c2nnc(SCC(=O)NCc3ccc(C)cc3)nc2-c2ccc(OCC)c(OC)c2)cc1OC -14.3%
CCOc1ccc(-n2cc(-c3ccccc3)c3c(NC4CCCCC4)ncnc32)cc1 -2.22%
Cc1nn(-c2ccccc2)c(OC(=O)c2ccccc2Cl)c1S(=O)(=O)c1ccccc1 -7.6%
CC(CNC(=O)c1nnc(Cc2cccc(F)c2)o1)c1ccccc1 (stereo not drawn) -17.3%
COc1cc(CNCCSc2nnnn2C)ccc1OCc1ccc(F)cc1 -5.39%
CCOC(=O)c1[nH]c(C)c(CCC(=O)Nc2cccc(C(F)(F)F)c2)c1C -13.6%
CCc1nn2c(=O)cc(COC(=O)c3ccccc3NC(=O)COc3ccc(F)cc3)nc2s1 -18.3%
COCCNC(=O)Cn1cnc2sc(C)c(S(=O)(=O)N3CCN(c4ccccc4OC)CC3)c2c1=O -11.2%
CCC(NC(=O)Nc1ccc(OC)c(OC)c1)c1c(-n2cccc2)sc2c1CCN(C)C2 (stereo not drawn) -23.3%
CC(=O)c1cccc(NC(=O)[C@H](Cc2ccccc2)N2Cc3ccccc3C2=O)c1 1.35%
COc1ccc(N2CC(NC(=O)C3CC3)CC2=O)cc1 (stereo not drawn) -6.7%
COc1ccccc1C(=O)NCCSc1c(C)[nH]c2ccccc12 -4.61%
Cc1cccc(NC(=O)C2CCCN(S(=O)(=O)c3c(C)[nH]c(=O)[nH]c3=O)C2)c1C (stereo not drawn) 5.49%
COc1ccc(-c2nc3ccccc3o2)cc1NC(=O)C(C)(C)Oc1ccc(Br)cc1 -13.5%
O=c1oc2ccc3ccccc3c2cc1-c1nnc(Nc2ccc(Cl)cc2Cl)s1 -0.798%
COc1cccc(NC(=O)CSc2nc(=O)n(Cc3ccccn3)c3c2CCC3)c1 -3.31%
CCc1ccc(NC(=O)Cn2c(=O)c(CNc3ccccc3)cc3cc(OC)c(OC)cc32)cc1 -9.41%
COc1ccc(CCNC(=O)c2ccc3c(c2)N=C(C)c2cc(C)ccc2S3)cc1OC -7.1%
O=C(Cn1c(=O)oc2cc(S(=O)(=O)N3CCCC3)ccc21)NCc1ccc(Cl)cc1 -25.3%
O=c1oc2ccccc2n1CCCOc1ccccc1Cl -8.34%
COc1cccc(N2CCN(C(=O)CCS(=O)(=O)c3ccc4c(c3)CC(=O)N4C)CC2)c1 -12.3%
COc1ccc(NC(=O)Cn2c(=O)n(-c3cccc(C)c3)c(=O)c3c2c2cc(C)ccc2n3C)cc1Cl 7.63%
CCOc1cc2sc(N3CCC(C(=O)Nc4ccccc4C(=O)OC)CC3)nc2cc1Br -10.4%
O=C(C1CCC(CNS(=O)(=O)c2ccc(Br)s2)CC1)N1CCN(c2ccccc2Cl)CC1 (stereo not drawn) -14.6%
CCOCCCNC(=O)c1cc2c(=O)n(C)c3ccccc3c2n1C 1.4%
Cc1ccc(NC(=O)c2cn3c4c(ccc(Cl)c4c2=O)OC(C)C3)cc1C (stereo not drawn) -15.2%
CCN(CC)C(=O)Cn1c(=O)n(Cc2ccc(C(=O)NCc3ccc(C)cc3)cc2)c(=O)c2ccccc21 0.268%

— PubChem BioAssay AID1159614 (National Center for Advancing Translational Sciences (NCATS), 2016)
